# Data: PubChem BioAssay AID651820 (National Center for Advancing Translational Sciences (NCATS), 2012)
# “And” between values parts separate entries of the source, which are not always exact repeats. Equal entries are not always repeated. The whole screen tested about 340,000 compounds, of which about 12,000 (3.5%) were called active. This list was built around the results that the source calls inconclusive (neither active nor inactive); the mix of calls is not that of the screen. Calls come from the whole dose curve; as a rule, active = well fitted inhibition curve with a large enough effect; inconclusive = small, poorly fitted or top-dose-only effect, or another doubt; inactive = no such curve, though single readings can be large or run the other way. Where the call is inconclusive, the potency comes from a doubtful curve fit.
# Assay: qHTS Assay for Inhibitors of Hepatitis C Virus (HCV)
# Conditions: Huh7.5.1 HCVcc-Cre (HCVcc is cell-culture hepatitis C virus) infection, luciferase reporter, 44 h; activity change, negative = inhibition: at 41.8 µM (top of the series) unless noted
# Outline: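 Seed cells (1,000/well) for 4 h; treat with compound and infect with HCVcc-Cre, moi about 0.5. Incubate 44 h, then detect luciferase activity.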
# % is set by controls: 0 for no effect and ±100 for the full control effect; potency is the fitted concentration of half-maximal effect; tags give direction and shape of the fitted curve.
Compound,Potency,"activity change, negative = inhibition"
CCN1CCN(C(c2ccc(C(F)(F)F)cc2)c2ccc3cccnc3c2O)CC1 (centres undefined),active: 7.08 µM,
O=C1C(Cl)=C(NS(=O)(=O)c2ccc([N+](=O)[O-])cc2)C(=O)c2ccccc21,"inconclusive: 7.94 µM [inhibitor, partial curve]",
Fc1ccc(NCc2nnc(SCc3nnc(-c4ccccc4)o3)n2CC2CCCO2)cc1 (centres undefined),"inconclusive: 3.55 µM [inhibitor, full curve]",
CC1CCN(S(=O)(=O)c2ccc3c(c2)oc(=O)n3C)CC1,,inactive: 8.61%
CCOc1ccc(NC(=S)/C(=C(\[O-])c2ccc(C)c([N+](=O)[O-])c2)[n+]2ccccc2)cc1,,inactive: -5.16%
O=C(Nc1cccc(NC(=S)NC(=O)c2cccs2)c1)c1ccccc1,"inconclusive: 31.6 µM [inhibitor, single point]",
N#Cc1ccccc1OCCN1C(=O)c2ccccc2C1=O,"inconclusive: 2.24 µM [inhibitor, full curve]",
O=C(NCc1cc2ccccc2[nH]1)C1CCC(=O)N(CCCN2CCCC2=O)C1 (centres undefined),,inactive: 11%
c1ccc2c(NC3C4CC5CC(C4)CC3C5)nc(N3CCOCC3)nc2c1 (centres undefined),"inconclusive: 31.6 µM [inhibitor, single point]",
COC(=O)c1c(NC(C)=O)sc2c1CCCCC2,"inconclusive: 1.78 µM [inhibitor, full curve, poor fit]",
COCCn1c(C)cc(C2=NNC(=Nc3ccccc3)SC2)c1C,"inconclusive: 10 µM [inhibitor, partial curve, poor fit]",
COc1ccc(C(=O)Nc2nc(-c3cccs3)c(NC(C)=O)s2)cc1,"inconclusive: 7.08 µM [inhibitor, partial curve]",
COc1cc(/C=C2\SC(=Nc3ccccc3)N(CCc3c[nH]c4ccccc34)C2=O)ccc1OC(C)C(=O)O (centres undefined),"inconclusive: 17.8 µM [inhibitor, partial curve]",
O=C(c1ccccc1)c1ccc(N2CCOCC2)c(NC(=O)c2ccco2)c1,"inconclusive: 11.2 µM [inhibitor, single point]",
CC(C)Cn1c(=O)c(C(=O)N/N=C/c2cccc(F)c2)c(O)c2ccccc21,active: 20 µM,
Cc1ccc(CNC(=O)c2ccc3c(=O)n(CC4CCCO4)c(=S)[nH]c3c2)cc1 (centres undefined),"inconclusive: 35.5 µM [inhibitor, partial curve, poor fit]",
COc1ccc(-c2cc(C(=O)OCC(=O)NC3CC3)c3ccccc3n2)cc1,"inconclusive: 31.6 µM [inhibitor, single point]",
O=C(O)C1CC=CCC1C(=O)NCCCCc1ccccc1 (centres undefined),,inactive: 10.3%
COc1cc(OC)cc(C(=O)N[C@H](C(=O)Nc2ccc3c(c2)OCO3)C(C)C)c1,"inconclusive: 11.2 µM [inhibitor, single point]",
Cc1cc(C)nc(SCC(=O)Nc2ccc(S(=O)(=O)NC(C)(C)C)cc2)n1,active: 11.2 µM,
CCCc1nc2oc3c(NCC4CCCO4)ncnc3c2c2c1COC(C)(C)C2 (centres undefined),"inconclusive: 6.31 µM [inhibitor, partial curve]",
COc1cc(C(=O)Nc2cccc3ncccc23)cc(OC)c1OC,"inconclusive: 11.2 µM [inhibitor, single point]",
Cc1ccc(N2CCN(/N=C/c3ccncc3)CC2)cc1,"inconclusive: 31.6 µM [inhibitor, single point]",

Compound,Potency,"activity change, negative = inhibition"
CN(C(=O)CC1C(=O)NCCN1Cc1cccc(F)c1F)C1CC(C)(C)NC(C)(C)C1 (centres undefined),,inactive: 19.1%
CC(C)N1CCC(N2CCN(Cc3cc4c(cc3Cl)OCO4)CC2CCO)CC1 (centres undefined),"inconclusive: 8.91 µM [inhibitor, partial curve]",
COc1cccc(C(=O)Nc2ccccc2N2CCCC2)c1,"inconclusive: 31.6 µM [inhibitor, single point]",
COc1ccc(OCCn2cnc3ccccc32)cc1,"inconclusive: 11.2 µM [inhibitor, single point]",
CC1CCC(C(C)C)C(OC(=O)Cn2c(-c3ccccc3)[n+](C)c3ccccc32)C1 (centres undefined),"inconclusive: 14.1 µM [inhibitor, partial curve] and inconclusive: 20 µM [inhibitor, partial curve, poor fit]",
COc1cccc(NC(=O)c2cc([N+](=O)[O-])ccc2NC(=O)CNCC2CCCO2)c1 (centres undefined),"inconclusive: 11.2 µM [inhibitor, partial curve]",
COCCn1c(-c2cccs2)csc1=Nc1cccnc1,,inactive: -26.6%
O=C(NCC1CCCO1)c1cc(C(=O)C2CC2)c[nH]1 (centres undefined),,inactive: 8.3%
Cc1ccc(NC(=O)C2CC(O)CN2C(=O)OCc2ccccc2)c(C)c1 (centres undefined),,inactive: 17.4%
COc1cccc(NC(=O)Nc2cccn(Cc3ccc(C)cc3)c2=O)c1,active: 11.2 µM,
COc1cc(NC(=O)c2cccc([N+](=O)[O-])c2)ccc1NC(=O)c1cc2ccccc2o1,"inconclusive: 1.26 µM [inhibitor, partial curve]",
CCCCSc1nc2c(cnn2-c2ccc(F)cc2)c(=O)[nH]1,,inactive: 12.3%
CC1(c2ccc(Cl)cc2)NC(=O)N(CC(=O)N2CCN(S(=O)(=O)c3ccccc3)CC2)C1=O (centres undefined),,inactive: 17.1%
Cc1ccccc1NC(=S)NC(=O)c1cc(-c2ccccc2)nc2ccccc12,"inconclusive: 11.2 µM [inhibitor, partial curve]",
COC(=O)c1ccc(C2=NOC(C)(c3nnc(Cc4ccccc4)o3)C2)cc1 (centres undefined),,inactive: 4.54%
COc1ccc(CCNc2oc(COc3ccccc3Cl)nc2C#N)cc1OC,"inconclusive: 12.6 µM [inhibitor, partial curve] and inconclusive: 31.6 µM [inhibitor, single point]",
CC(C)NC(=O)c1ccc(-c2ccc(Cl)c(C(F)(F)F)c2)o1,,inactive: -10.5%
COc1ccc2[nH]c(=O)c(CN(C(=O)c3cccnc3)c3ccccc3C)cc2c1,,inactive: 8.1%
CCc1nc(N(CC)CC)c2oc3ccccc3c2n1,"inconclusive: 31.6 µM [inhibitor, single point]",
CCOC(=O)[C@H]1[C@H]2COc3ccc(Cl)cc3[C@@H]2N2C(=O)c3cc(F)ccc3NC(=O)[C@@]12C,"inconclusive: 22.4 µM [inhibitor, single point]",
Cc1cccc(NC(=O)Cc2coc3ccc4ccccc4c23)n1,"inconclusive: 31.6 µM [inhibitor, single point]",
COc1ccc(-c2[nH]ncc2CN2CCN(C3CCCCC3)C(=O)C2)cc1F,,inactive: -21.4%
Cc1cccc(N2CCN(CC(O)COc3ccc4ccccc4c3)CC2)c1 (centres undefined),,inactive: 5.75%

Compound,Potency,"activity change, negative = inhibition"
O=C(CN1C(=O)NC2(CCCCCCC2)C1=O)Nc1c(Cl)cccc1Cl,,inactive: 9.41%
COc1ccc(Br)cc1CN(C)CC(=O)Nc1cc(Cl)cc(Cl)c1,"inconclusive: 11.2 µM [inhibitor, partial curve]",
COC(=O)C1=C(c2ccccc2OCc2ccccc2)C[C@@H]2CC[C@H]1N2C(=O)NCc1ccc(OC)cc1,active: 11.2 µM,
COc1ccccc1CNC(=O)COC(=O)C1CCN(S(=O)(=O)c2ccc(C)c(C)c2)CC1,,inactive: 36.2%
COc1ccc(NS(=O)(=O)c2ccc3c(c2)NC(=O)C(C)S3)cc1 (centres undefined),"inconclusive: 22.4 µM [inhibitor, single point]",
Cn1c(S(=O)(=O)O)nc2ccccc21,"inconclusive: 6.31 µM [inhibitor, full curve]",
CC[C@]12c3[nH]c4cc(CCC(=O)N(C)C)ccc4c3CCN1C(=O)[C@@H](CC(=O)NCCCN(C)C)C[C@@H]2C(=O)N1CCN(C(=O)c2ccco2)CC1,,inactive: 7.67%
CC(C)(C)c1ccc(C(=O)NCCC(=O)Nc2cc(Cl)ccc2N2CCOCC2)cc1,active: 11.2 µM,
Cc1ccc(NC2=C(N3CCOCC3)C(=O)c3ccccc3C2=O)cc1,"inconclusive: 31.6 µM [inhibitor, single point]",
CCOC(=O)N1CCN(C(=O)c2ccc(N3C(=O)c4ccccc4C3=O)cc2)CC1,,inactive: 14.7%
CC(=O)c1c(C)[nH]c(C(=O)CN2CCN(S(=O)(=O)c3ccc(C(C)C)cc3)CC2)c1C,"inconclusive: 22.4 µM [inhibitor, single point]",
Cc1ccc(CN2CCN(CC(=O)N3CCC(C(N)=O)CC3)C2=O)cc1,,inactive: 18%
O=P(c1ccccc1)(c1ccccc1)c1nc(-c2ccc(Cl)cc2)oc1N1CCOCC1,active: 10 µM,
Cc1cc(C)c2c(CN3CCN(C)CC3)cc(=O)oc2c1,"inconclusive: 31.6 µM [inhibitor, single point]",
O=C(Nc1ccccc1[N+](=O)[O-])c1cc2ccccc2nc1Cl,,inactive: -3.07%
O=C(Nc1ccccn1)c1cc(-c2ccc(Cl)s2)nc2ccccc12,"inconclusive: 31.6 µM [inhibitor, single point]",
COc1cccc(NC(=O)C2CCN(S(=O)(=O)c3ccc4c(c3)CC(C)N4C(C)=O)CC2)c1 (centres undefined),"inconclusive: 31.6 µM [inhibitor, single point]",
Cc1cc(/C=C(\C#N)C(=O)NCc2cccs2)c(C)[nH]1,"inconclusive: 11.2 µM [inhibitor, partial curve]",
O=S(=O)(c1ccccc1)N1CCC(O)(CSc2ccc(F)cc2)CC1,active: 11.2 µM,
CCc1cccc(C)c1NC(=S)N(CCOC)C(C)c1ccco1 (centres undefined),,inactive: -13.1%
CCCCCCC(=O)NN1CCN(C)CC1,,inactive: 4.32%
CC(Sc1nnc(-c2ccccc2)c(-c2ccccc2)n1)C(=O)N1CCc2ccccc21 (centres undefined),"inconclusive: 10 µM [inhibitor, partial curve]",
CCOC(=O)c1c(NC(=O)CSc2nc3ccccc3s2)sc(C)c1C,"inconclusive: 11.2 µM [inhibitor, partial curve]",
